The record followed here is PubChem BioAssay AID1745853 (National Center for Advancing Translational Sciences (NCATS), 2022).

The list shows a part of the results. These are further read-outs of the screen, such as a control signal, another cell line or another target. No call is given for them.

Common to all, as to assay: Primary Screen for Target Class Profiling of Small Molecule Inhibitors of Methyltransferases
In assay [1] the target is Glycine N-methyltransferase (Homo sapiens) (UniProt Q14749). To be noted: purified enzyme, MTase-Glo SAH luminescence; measured here: GNMT inhibition; at 40 µM; stronger effect = lower value. In outline:
(§1)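 Each enzyme was reacted with SAM and its substrate, with compounds tested once at 40 uM; SAH formed was read by MTase-Glo luminescence.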

The target in assay [2] is Guanidinoacetate N-methyltransferase (Homo sapiens) (UniProt Q14353). To be noted: purified enzyme, MTase-Glo SAH luminescence; measured here: GAMT inhibition; at 40 µM; stronger effect = lower value. In a few lines: as §1
Assay [3] has as its target Histamine N-methyltransferase (Homo sapiens) (UniProt P50135). As to conditions: purified enzyme, MTase-Glo SAH luminescence; measured here: HNMT inhibition; at 40 µM; stronger effect = lower value. In outline:
as §1

In assay [4] the target is Nicotinamide N-methyltransferase (Homo sapiens) (UniProt P40261). As to conditions: purified enzyme, MTase-Glo SAH luminescence; measured here: NNMT inhibition; at 40 µM; stronger effect = lower value. In a few lines: as §1
In assay [5] the target is Phenylethanolamine N-methyltransferase (Homo sapiens) (UniProt P11086). To be noted: purified enzyme, MTase-Glo SAH luminescence; measured here: PNMT inhibition; at 40 µM; stronger effect = lower value. In a few lines:
as §1
% is set by controls: 0 for no effect and ±100 for the full control effect.

For `O=C(Nc1ccccc1)N1Cc2ccccc2-n2cccc2C1c1cc(F)cc(F)c1` (centres undefined), the activity change, negative = inhibition was -0.513% in assay [1]; 0.736% in assay [2]; -2.54% in assay [3]; -4.1% in assay [4]; -4.04% in assay [5].
In the same order, the values of `Cc1ccccc1C1c2cccn2-c2ccccc2CN1C(=O)Nc1ccc(Br)cc1` (centres undefined) are 7.18%, 0%, 2.54%, 5.74% and 6.46%.
Taken in the same sequence, the figures for `CCCn1cc(C(=O)NC(C(=O)O)c2ccccc2C(F)(F)F)c(C)n1` (centres undefined) were -4.89%, -9.33%, -3.46%, -16.7% and -21.8%.
Taken in the same sequence, the figures for `COc1ccc(C2c3cccn3-c3ccccc3CN2C(=O)Nc2cc(OC)ccc2OC)cc1` (centres undefined) were 6.76%, 1.04%, -1.32%, 0.339% and 5%.
Turning to `Cc1ccc(NC(=O)N2Cc3ccccc3-n3cccc3C2c2ccc(N(C)C)cc2)cc1C` (centres undefined), the activity change, negative = inhibition in assay [1] was 5.28%; in assay [2], 0%; in assay [3], 1.89%; in assay [4], 1.31%; in assay [5] it was 4.65%.
Consider `O=C(Nc1ccc(F)c(Cl)c1)N1Cc2ccccc2-n2cccc2C1c1cccs1` (centres undefined), for which the activity change, negative = inhibition was 8.79% in assay [1]; 4.98% in assay [2]; 0.073% in assay [3]; -4.6% in assay [4]; 1.08% in assay [5].
In the same order, the values of `C[C@@H]1O[C@H](C[N+](C)(C)C)C[C@H]1O` are -2.72%, 2.06%, 0.774%, -8.72% and 0.211%.
On to `CCOc1ccc(C2c3cccn3-c3ccccc3CN2C(=O)NCCCOC)cc1` (centres undefined), for which the activity change, negative = inhibition is -4.01% in assay [1]; 4.61% in assay [2]; 1.19% in assay [3]; -8.05% in assay [4]; 0.297% in assay [5].
For the compound `CP(=O)(O)C1=CCNCC1`, the activity change, negative = inhibition in assay [1] is -1.13%; in assay [2] it was 1.91%; in assay [3] it was 0.813%; in assay [4], -4.84%; in assay [5], 1.84%.
Regarding `C/C=C1/CN2CC[C@]34C(=Nc5ccccc53)[C@@H]2C[C@@H]1[C@H]4C(=O)OC`, the activity change, negative = inhibition in assay [1] is -1.14%; in assay [2] it was 1.99%; in assay [3], -28.1%; in assay [4], -10.3%; in assay [5], -4.72%.
On to `Cn1cc(C2=C(c3cn(C4CCN(Cc5ccccn5)CC4)c4ccccc34)C(=O)NC2=O)c2ccccc21`, for which the activity change, negative = inhibition in assay [1] was -42.2%; in assay [3] it was -12.9%; in assay [4], -32.8%; in assay [5], -0.593%.
On to `NC(=O)c1cc(N2CC2)c([N+](=O)[O-])cc1[N+](=O)[O-]`, for which the activity change, negative = inhibition in assay [1] is -0.444%; in assay [2], 12.5%; in assay [3], 1.46%; in assay [4], -3.9%; in assay [5] it was 8.26%.
Consider `COc1cccc(NC(=O)N2Cc3ccccc3-n3cccc3C2c2ccc(SC)cc2)c1` (centres undefined), for which the activity change, negative = inhibition is 2.36% in assay [1]; 0.251% in assay [2]; 4.45% in assay [3]; -0.7% in assay [4]; 7.1% in assay [5].
As for `COc1ccc(C2c3cccn3-c3ccccc3CN2C(=O)Nc2cc(C)ccc2C)cc1` (centres undefined), the activity change, negative = inhibition was -1.26% in assay [1]; 4.5% in assay [2]; -2.58% in assay [3]; -0.058% in assay [4]; -4.56% in assay [5].
Taken in the same sequence, the figures for `Cc1ccccc1C1c2cccn2-c2ccccc2CN1C(=O)NCc1ccc(F)cc1` (centres undefined) were 16%, 1.23%, 8.16%, 8.49% and 9.09%.
Taken in the same sequence, the figures for `COc1ccc(C2c3cccn3-c3ccccc3CN2C(=O)Nc2ccc(C)c(C)c2)cc1` (centres undefined) were -1.64%, 4.8%, -0.547%, -3.1% and -3.41%.
In the same order, the values of `CCc1ccc(NC(=O)N2Cc3ccccc3-n3cccc3C2c2cccc(Cl)c2)cc1` (centres undefined) are 10.5%, 1.25%, 5.31%, 8.64% and 5.18%.
Consider `CCc1c(C(=O)C(N)=O)c2c(OCC(=O)OC)cccc2n1Cc1ccccc1`, for which the activity change, negative = inhibition is -5.99% in assay [1]; -5.59% in assay [2]; 1.24% in assay [3]; -22.4% in assay [4]; -4.24% in assay [5].
